Experimental data: article PMC4336329 (PLoS ONE, 2015)
Hit rate of the full screen: of about 310,000 compounds, about 14,000 (4.5%) showed an effect of 50% or more. Effects have a minus sign here. The list shows a part of the results.

What follows are compounds tested against human ether-à-go-go-related gene (hERG) potassium channel (human, UniProt Q12809) (assay: primary screen, population patch clamp on CHO cells stably expressing hERG).
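Further: peak tail current of the secondary pulse compared with the same well before compound.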

human ether-à-go-go-related gene (hERG) potassium channel, sequence (Q12809 whole entry, looked up): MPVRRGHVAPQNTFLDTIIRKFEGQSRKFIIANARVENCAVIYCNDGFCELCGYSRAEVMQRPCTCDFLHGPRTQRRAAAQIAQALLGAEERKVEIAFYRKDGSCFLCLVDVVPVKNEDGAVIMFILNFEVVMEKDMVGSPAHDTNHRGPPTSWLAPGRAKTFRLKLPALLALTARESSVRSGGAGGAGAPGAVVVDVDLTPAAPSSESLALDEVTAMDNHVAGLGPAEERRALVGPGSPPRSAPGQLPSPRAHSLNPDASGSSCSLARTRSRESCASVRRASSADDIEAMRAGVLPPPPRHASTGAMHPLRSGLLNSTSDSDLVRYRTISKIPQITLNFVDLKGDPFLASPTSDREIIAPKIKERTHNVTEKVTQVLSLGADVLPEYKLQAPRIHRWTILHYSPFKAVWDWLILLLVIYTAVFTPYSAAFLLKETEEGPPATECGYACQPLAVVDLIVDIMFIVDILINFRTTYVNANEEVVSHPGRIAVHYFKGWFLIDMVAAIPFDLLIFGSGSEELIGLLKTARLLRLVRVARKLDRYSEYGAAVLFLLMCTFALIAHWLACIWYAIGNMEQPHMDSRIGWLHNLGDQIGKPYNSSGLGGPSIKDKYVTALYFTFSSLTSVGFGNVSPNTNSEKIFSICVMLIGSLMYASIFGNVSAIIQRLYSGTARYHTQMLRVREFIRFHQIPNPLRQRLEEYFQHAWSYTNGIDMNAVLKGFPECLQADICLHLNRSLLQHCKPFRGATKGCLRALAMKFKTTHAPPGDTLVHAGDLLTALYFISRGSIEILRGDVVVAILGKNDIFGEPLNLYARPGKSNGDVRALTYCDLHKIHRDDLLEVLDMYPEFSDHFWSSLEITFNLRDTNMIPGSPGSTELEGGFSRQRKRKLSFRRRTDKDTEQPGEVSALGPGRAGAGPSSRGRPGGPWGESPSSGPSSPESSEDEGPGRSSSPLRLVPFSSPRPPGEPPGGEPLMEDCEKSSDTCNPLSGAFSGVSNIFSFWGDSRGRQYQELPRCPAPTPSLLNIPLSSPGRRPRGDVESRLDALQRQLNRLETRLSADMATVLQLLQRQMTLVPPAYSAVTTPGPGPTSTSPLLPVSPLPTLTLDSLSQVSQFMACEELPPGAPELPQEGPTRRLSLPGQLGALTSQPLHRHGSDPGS

SMILES | hERG current change (%, negative = inhibition) at 10uM [%]
CSc1ccc(Cl)c(C(=O)N2CCN(c3ncccn3)CC2)c1 | -33
COc1ccc(NC(=O)C(C)Oc2ccc(/C(C)=N\O)cc2)cc1 (centres unmarked) | 5.55
O=c1c2ccccc2ncn1-c1ccccc1C(F)(F)F | -1.92
Cc1ccc(C(=O)C2CCN(CC(=O)NCc3ccc(F)cc3)CC2)cc1 | -53.3
CCn1c(=O)n(CC)c2cc([N+](=O)[O-])c(N3CCNCC3)cc21 | 30.5
CCN(CC)S(=O)(=O)c1ccc(C(=O)NCCCN=C2NS(=O)(=O)c3ccccc32)cc1 | -5.24
COc1cccc(C(=O)NOCc2ccc(C)cc2)c1OC | -7.01
CC(C)(C)c1ccc(NC(=O)c2ccc(=O)[nH]n2)cc1 | -10.8
COc1cccc(C2C(C(=O)c3cc4cccc(OC)c4o3)=C(O)C(=O)N2c2cc(C)on2)c1OC (centres unmarked) | 3.48
Cc1c(NC(=O)Nc2ccc3c(c2)OCO3)c(=O)n(-c2ccccc2)n1C | -6.35
CSc1nc2ccccc2c(=O)n1Cc1ccc(F)cc1 | 15.4
CC1CCCC(C)N1/N=C/c1ccccc1C(=O)O (centres unmarked) | 15.6
COC(=O)c1onc(-c2c(OC)cc(OC)cc2OC)c1C(=O)OC | 4.47
O=C(Nc1ccc(C(=O)O)cc1)Nc1ccc([N+](=O)[O-])cc1 | 24.7
O=C(Nc1nc(-c2cccc(Br)c2)cs1)Oc1ccccc1 | 8.42
Cc1ccc(C)c(NC(=O)c2cnc3n(c2=O)CCS3)c1 | 7.09
Cc1ccc(C(=O)NC(Cc2c[nH]c3ccccc23)C(=O)O)cc1 (centres unmarked) | -3.25
CC(C)c1ccc(NC(=O)CSc2nc(=O)n(CCCN3CCOCC3)c3c2CCCC3)cc1 | -39.7
Cc1cc(=O)n2nc(N3CCC(C(=O)NCc4ccc(F)cc4)CC3)sc2n1 | -55.5
COc1ccc(Cc2nc3ccc(C(=O)N(C)CCO)cc3o2)cc1 | 6.1
O=C(Nc1nccs1)C1CCCN1S(=O)(=O)c1ccc(Cl)cc1 (centres unmarked) | 0.446
CCCn1c(SC(C)C(=O)NCC2CCCO2)nc2sc3c(c2c1=O)CCC3 (centres unmarked) | -13.4

SMILES | hERG current change (%, negative = inhibition) at 10uM [%]
CCS(=O)(=O)Nc1cc(C(=O)O)ccc1C | -44.8
Cc1c(Cl)cccc1NC(=O)c1cccc(NC(=O)CCC(=O)O)c1 | -0.799
N#Cc1ccc(CC(C(=O)O)N2Cc3ccccc3C2=O)cc1 (centres unmarked) | 25.3
CCN(CC(=O)Nc1c(F)cccc1F)C(=O)c1ccc2ncsc2c1 | 9.79
O=C(NC1CCCCCCC1)c1ccc(Br)o1 | -12.7
CC1CCN(c2ccc([N+](=O)[O-])c(SCCO)c2)CC1 | -11.4
CCCn1cc(S(=O)(=O)CC(=O)N2CCc3ccccc32)c2ccccc21 | -7.94
Fc1ccc(NCc2ccccc2F)cc1Cl | -139
CC(C)=NN1C(c2nonc2N)=NOC1(C)C | 6.47
COc1cccc(CNC(=O)C2CCN(c3ncnc4c3nc3n4CCCCC3)CC2)c1 | 16.7
COC(=O)[C@@](C)(O)C1(C(=O)SC(C)(C)C)CC1 | 1.25
O=C(CCCc1ccccc1)NCc1ccccn1 | 11.6
CCCCOc1ccc(C(=O)OCC(=O)NC2CCCC2)cc1 | 6.06
Cc1cc(NC(=O)c2noc3c2CCc2ccccc2-3)n(-c2ccccc2)n1 | 4.18
CC(C)c1c(C(=O)N/N=C/c2cccnc2)nnn1-c1nonc1N | 15.4
O=C1C(=O)N(CCc2c[nH]c3ccccc23)C(c2cccnc2)/C1=C(/O)c1ccccc1 (centres unmarked) | 2.24
CC1(C)CC2CC(C)(CN2C(=O)c2ccccc2)C1 (centres unmarked) | 8.08
C[C@@]12C(=O)Nc3ccc(Br)cc3C(=O)N1[C@H]1c3cc(Cl)ccc3OC[C@@H]1[C@@H]2c1ccccc1 | 18.5
COC(=O)c1ccc(C2C(C(C)=O)=C(C)Nc3ncnn32)cc1 (centres unmarked) | 4.75
Cc1ccc(SCc2[nH]nc3c2C(C(C)C)C(C#N)=C(N)O3)cc1 (centres unmarked) | 20.3
C/C(=N\NC(=O)Cc1ccc(Cl)cc1)c1cccnc1 | 2.45
COc1cccc(/C=C2\SC(=S)N(C(C)C(=O)NC3C=CS(=O)(=O)C3)C2=O)c1 (centres unmarked) | 14.6
